# Results from the RNAGym collection of RNA variant scans (doi:10.7554/elife.90254).
# Read counts are not given, so values of variants with three or more changes are uncertain.
# B1: LINE1-mini (parent)
# chain: GGCAGAGCUCAACACAGCGUGGCAAAGUGGCUGUGGCUAGACUGCC
# Variants of: B1
# Assay: self-cleavage, relative activity (ratio to wild type); higher = more cleavage; in vitro, sequencing; the parent is a self-cleaving ribozyme
row,Variant,self-cleavage
1,GGCAGAGGUCAACACAACGUGGCAAAGAGGCUGUGUCUAGACUGAC [C8G G17A U28A G36U C45A],0.03
2,GGCAGAGGUCAACACCGCGUGGCAAAGUGGCUGUGGCUAAACUGCC [C8G A16C G40A],0.02
3,GGCAGAGGUCAAUACAGCGUGGCAAAGUGGCUGUGGCACGACUGCA [C8G C13U U38A A39C C46A],0.11
4,GGCAGAGGUCAACACAGCGUGGCACAGUGGCGGUGACUAGACCGCU [C8G A25C U32G G36A U43C C46U],0.04
5,GGCAGAGGUCAGCACAGCGUGUCAAAGUGGCUGUGGCUAGACUUCC [C8G A12G G22U G44U],0.02
6,GGCAGAGGUAAACACAGCGUGGCAAAGUGGCUGUGGCUAGUCUGCC [C8G C10A A41U],0.02
7,GGCAGAGGUCAACACAGCGUGGCAAAGUGGAUGUGGCUAGACCGCC [C8G C31A U43C],0.03
8,GGCAGAGGUAUACACUGCGCGGCAAAGUGGCUGUGGCUAGACUGCC [C8G C10A A11U A16U U20C],0
9,GGCAGAGGUCAACACAGCGUGGCAACGUGUUUGUGGCUAGACUGCC [C8G A26C G30U C31U],0.03
10,GGCAGAGGUAAACACAGCGUGGCAAAUAGGCUGUGGCUAGACUGAC [C8G C10A G27U U28A C45A],0
11,GGCAGAGGUCAACACAGCGUGGCGAAGUGGCUGUGGCUAGACUGGC [C8G A24G C45G],0.55
12,GGCAGAGGUAAACAGAGCGUGGCAAAGUGGCUGUGGCUAUACUGCC [C8G C10A C15G G40U],0.01
13,GGCAGAGGUCAAGAAAGCGCGGCAAAGUCGCUGUGGCAGGACUGCC [C8G C13G C15A U20C G29C U38A A39G],0.01
14,GGCAGAGGUCAACACCGCGUGGCAAAGUGGCUGUACCUAGAGUGCC [C8G A16C G35A G36C C42G],0.01
15,GGCAGAGGUCAACACAGCGUGGCAUAUUGGCUGUGGCUAGACUGCC [C8G A25U G27U],0.06
16,GGCAGAGGUCAACACACCGUGGCAAAGUGGCUGUGGCUAGACUGAC [C8G G17C C45A],0.1
17,GGCAGAGGUUAACACCGCGUGGCAAAGUGGCUGUGGCUAGACUGCC [C8G C10U A16C],0.04
18,GGCAGAGGUCAACACAGCGUGGCAAAGUGGAUAUGGCUAUACUGCC [C8G C31A G33A G40U],0.01
19,GGCAGAGGUCAACACAGCGUGGUAAAGUGGGCGUGGCUAGAAUGCC [C8G C23U C31G U32C C42A],0.14

row,Variant,self-cleavage
1,GGCAGAGGUCAACACAACGUGGUAAGGUGGCUUUGGAUAGACUGUC [C8G G17A C23U A26G G33U C37A C45U],0.03
2,GGCAGAGGUCAGCACAGCGUGGCAAAGUUGCUGUGGCGAGACUGCC [C8G A12G G29U U38G],0.01
3,GGCAGAGGUCAAAACAGCGUGGCAAAGUGGCUGUGGCUAGCCUGCC [C8G C13A A41C],0.02
4,GGCAGAGGUCAACACAGCGUGGCACAGUAGCUGUGGCUAGACUGCC [C8G A25C G29A],0.09
5,GGCAGAGGUCAAUACAGCGUGGCAAUGUGGCUGUCGCUAGACUGCC [C8G C13U A26U G35C],0.25
6,GGCAGAGGUCAACGCAGCGUGGCAAAGUGGCUGUGACUUGACUGCC [C8G A14G G36A A39U],0.03
7,GGCAGAGGUCAAGACAGCGUGGCAAAGUGGAUGUGACUAGACUGCC [C8G C13G C31A G36A],0.02
8,GGCAGAGGUCAAAACCGCGUGGCAAAGAGGCUGUGGCUUGACUGCG [C8G C13A A16C U28A A39U C46G],0.01
9,GGCAGAGGUCAAAACUGCGUGGCACUGUGGCUGUGGCUAGACUGCC [C8G C13A A16U A25C A26U],0.1
10,GGCAGAGGUCAAAAAAGCGUGGCAUAAUGGCUGUGGCUAGACUGCC [C8G C13A C15A A25U G27A],0.07
11,GGCAGAGGUCAAUCCAGCGUGGCAAAGUGGCUGUGGCUAGUCUGCC [C8G C13U A14C A41U],0.1
12,GGCAGAGGUUAACACAGCGUUGCAAAGUUGCUGUGGCUAGACAGCC [C8G C10U G21U G29U U43A],0.04
13,GGCAGAGGUCAACACACUGUGGCAAAGUGGCUGUGGCUAGAAUGCC [C8G G17C C18U C42A],0.08
14,GGCAGAGGUCAACUCAGCGUGGCAAAGUGGAUGUGGCUAGAGUGCC [C8G A14U C31A C42G],0.03
15,GGCAGAGGUCAACGCAGCGUGGAAAAUUGGCUGUGGCUAUACUGCC [C8G A14G C23A G27U G40U],0.07
16,GGCAGAGGUCAACGCAGCGUGGCAAAGUGGCUGCGGCUAGACUGCC [C8G A14G U34C],0.06
17,GGCAGAGGUCAAAACAGCGUGGAAAAGUGGCUGUGCGUAGACUGCC [C8G C13A C23A G36C C37G],0.05
18,GGCAGAGGUCAAAACAACGUGGCAAAGUGGCUGUGGCUAGACUGCC [C8G C13A G17A],0.04
19,GGCAGAGGUCAACACAUCGUGGCAAAGUGGCUAUGGCUAGACUGCC [C8G G17U G33A],0.02

row,Variant,self-cleavage
1,GGCAGAGGUCAACAAAGAGUGGCAAAGUGGCUUUGGAUAGACUGCC [C8G C15A C18A G33U C37A],0.02
2,GGCAGAGGUCAAUACAGCGUGGCAAAAUGGUUGUGACUAAACUGCC [C8G C13U G27A C31U G36A G40A],0.02
3,GGCAGAGGUCAACACAGCGUGGCAAAGUGGAUGUGGCUUGACUGCC [C8G C31A A39U],0.01
4,GGCAGAGGUAAACCCAGCGUGGCAAAGUGGCGGUGGCUAGAAUGCC [C8G C10A A14C U32G C42A],0
5,GGCAGAGGUCAACACAGGGUGGCAAAGUGACUGUGGCUAGACUGCC [C8G C18G G30A],0.11
6,GGCAGAGGUCAACACAGCGUGGCAACGUGGCUGUGGCAAGAUUGCC [C8G A26C U38A C42U],0.1
7,GGCAGAGGUCAACACAGCGUGGUAAAGUGGUUGUUGCUAGACUGCC [C8G C23U C31U G35U],0.01
8,GGCAGAGGUCAAGGCAGCGUGGCAUCGUGGCUGUGGCUAGACUGCC [C8G C13G A14G A25U A26C],0.07
9,GGCAGAGGUCAACGCCGGGUGGCAAAGUGGCUGUGGCUAGACUGCC [C8G A14G A16C C18G],0.02
10,GGCAGAGGUCAACACAGCGUGGUAAAGUGGAUGUGGCUAGACUGCC [C8G C23U C31A],0.06
11,GGCAGAGGUCAACACAGCGUGGGAAAGUGGCUGUGGCUAGACUGCA [C8G C23G C46A],0.02
12,GGCAGAGGUCAACACGGCGUGGCAAAGUGGCUGUGGCUCGACUGCC [C8G A16G A39C],0.16
13,GGCAGAGGUCAACACAGCGUGGCAAAGUGGCUGUGGCUAGACUGUG [C8G C45U C46G],0.06
14,GGCAGAGGUCAACAGAGCGUGGCAAAGUGGCUGUGGCUAGACGGCC [C8G C15G U43G],0
15,GGCAGAGGUCAACACCUCGUGGCAAAGUGGCUGUCGCUAGACUGCC [C8G A16C G17U G35C],0
16,GGCAGAGGUCAACACAGCGUGGAAAAAUGGCUGCGGCUAGACUGCC [C8G C23A G27A U34C],0.08
17,GGCAGAGGUCAACACAGCGUGGCAUAGUGGCUGGGGCUAGACUGCA [C8G A25U U34G C46A],0.05
18,GGCAGAGGUCAACACAGAGUGGCAAAGUGGCUGUGGCUCGACUGCC [C8G C18A A39C],0.05
